In all, about 310,000 compounds went through this assay and about 14,000 (4.5%) showed an effect of 50% or more. Effects have a minus sign here. This is one part of the list.
target: human ether-à-go-go-related gene (hERG) potassium channel (human, UniProt Q12809); test: primary screen, population patch clamp on CHO cells stably expressing hERG
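Also: peak tail current of the secondary pulse compared with the same well before compound.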

Sequence of human ether-à-go-go-related gene (hERG) potassium channel (Q12809 whole entry, looked up): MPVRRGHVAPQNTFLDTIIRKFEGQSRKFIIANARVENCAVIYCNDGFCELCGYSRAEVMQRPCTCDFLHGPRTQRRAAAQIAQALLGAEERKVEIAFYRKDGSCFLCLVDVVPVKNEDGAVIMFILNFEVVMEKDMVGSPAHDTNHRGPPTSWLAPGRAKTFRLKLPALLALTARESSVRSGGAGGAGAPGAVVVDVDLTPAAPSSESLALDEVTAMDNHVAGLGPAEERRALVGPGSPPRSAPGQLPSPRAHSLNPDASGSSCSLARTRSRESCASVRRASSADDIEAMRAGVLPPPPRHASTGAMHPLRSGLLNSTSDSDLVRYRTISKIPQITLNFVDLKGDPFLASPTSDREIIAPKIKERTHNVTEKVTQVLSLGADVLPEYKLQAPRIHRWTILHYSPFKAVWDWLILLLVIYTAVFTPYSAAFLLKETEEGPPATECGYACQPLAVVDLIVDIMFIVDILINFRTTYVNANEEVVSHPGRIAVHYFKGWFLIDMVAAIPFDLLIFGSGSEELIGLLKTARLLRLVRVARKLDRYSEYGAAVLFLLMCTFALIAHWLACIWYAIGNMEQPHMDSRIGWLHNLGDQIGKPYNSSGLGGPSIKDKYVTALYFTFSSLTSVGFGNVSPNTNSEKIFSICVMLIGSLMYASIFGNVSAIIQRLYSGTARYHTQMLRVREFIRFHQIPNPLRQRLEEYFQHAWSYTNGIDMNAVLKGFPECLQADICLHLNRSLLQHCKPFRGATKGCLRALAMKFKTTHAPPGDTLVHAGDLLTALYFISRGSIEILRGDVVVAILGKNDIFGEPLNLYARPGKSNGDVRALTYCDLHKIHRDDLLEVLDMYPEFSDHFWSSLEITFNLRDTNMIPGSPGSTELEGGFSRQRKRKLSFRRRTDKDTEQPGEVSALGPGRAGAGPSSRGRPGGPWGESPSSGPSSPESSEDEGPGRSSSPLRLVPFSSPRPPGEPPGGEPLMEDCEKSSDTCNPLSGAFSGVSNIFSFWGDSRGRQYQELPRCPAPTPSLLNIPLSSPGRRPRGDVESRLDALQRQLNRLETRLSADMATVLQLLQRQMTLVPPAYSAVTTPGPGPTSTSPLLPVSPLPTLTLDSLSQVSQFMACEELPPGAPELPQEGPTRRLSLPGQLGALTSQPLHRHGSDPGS

SMILES | hERG current change (%, negative = inhibition) at 10uM [%]
COC(=O)C1CCN(C(=O)c2c(-c3ccccc3Cl)noc2C)CC1 | 18.2
COC(=O)/C(C#N)=C/c1occc1C | 0.0829
CCOC(=O)N1CCN(S(=O)(=O)c2ccc(C(=O)N(CCN(C)C)c3nc4c(C)cccc4s3)cc2)CC1.Cl | -37.5
Cc1cc(C)c(C#N)c(SCCS(=O)(=O)c2ccc(Cl)cc2)n1 | -5.2
COc1ccccc1C(C)NS(=O)(=O)c1cccs1 (stereo not shown) | 11.9
Cc1cc(C)c(NC(=O)CSc2nc3ccc(NC(=O)CSc4nnnn4Cc4ccccc4)cc3s2)c(C)c1 | 0.987
Cc1nc(Nc2ccc(Cl)cc2)c2oc3ccccc3c2n1 | 3.95
O=c1[nH]c(=O)n(CCc2ccccc2)c(O)c1C=NCc1ccc2c(c1)OCO2 | -4.95
Cc1ccc(C(=O)Nc2c(C)cc(-c3ccc(Cl)cc3)oc2=O)cc1 | -6.18
CCn1c(SCC(=O)Nc2ccc3c(c2)OCO3)nc2ccccc21 | 4.47
Cn1c(O)c(C2=c3ccccc3=NC2=O)sc1=Nc1ccc(Cl)cc1 | -8.62
COc1ccc(/C=N/Nc2nc3ccccc3o2)cc1OC | 13.3
COc1ccc(C2/C=C\CN(Cc3ccco3)CC(=O)N2Cc2ccc(F)cc2)cc1 (stereo not shown) | -1.92
CN1CCCN(C(=O)CC2(CC(=O)O)CCCC2)CC1.Cl | 8.11
CCCCCCCCCCOC(=O)c1csc2nnsc12 | 4.04
CCN(CC(=O)Nc1ccccc1OC)C(=O)c1cccc(-n2cccc2)c1 | -27.2
Cn1c(=O)c2c(-c3ccccc3)n3c4ccccc4ncc3c2n(C)c1=O | -6.9
CC(C)COC(=O)C1[C@H]2C(=O)N(Cc3cccs3)C[C@]23C=C[C@H]1O3 (stereo partly shown) | 0.82
CCCCOc1cccc(C(=O)N(Cc2ccco2)C2CCS(=O)(=O)C2)c1 (stereo not shown) | -12.5
CN(C)/C=C/C(=O)c1cccc(Oc2ncccn2)c1 | 7.53
COc1ccc(N2CC(C(=O)OCC(=O)NCc3ccccc3)CC2=O)cc1 (stereo not shown) | -39.3
Cc1ccc(N(C(C)C(=O)Nc2ccc(S(=O)(=O)N3CCOCC3)cc2)S(C)(=O)=O)cc1C (stereo not shown) | 1.77
COc1ccc(C2=NS(=O)(=O)N(C)C(C(=O)N3CCCCC3C)=C2)cc1 (stereo not shown) | -17
CC(C)NS(=O)(=O)c1ccc(OCC(=O)Nc2cccc(F)c2)cc1 | -11.1
N#Cc1ccc(C(=O)Nc2ccc([N+](=O)[O-])cc2)c(F)c1 | 4.42
CCOC(=O)N1CCN(C(=O)Cc2cccs2)CC1 | 11
Cc1occc1-c1nnc(SCC(=O)NCCc2ccccc2)n1C(C)c1ccccc1 (stereo not shown) | -31.8
Cc1ccc(OCCCCN2CCC(C)CC2)cc1.O=C(O)C(=O)O | -23.4

SMILES | hERG current change (%, negative = inhibition) at 10uM [%]
CCCN1Cc2cccc(C(=O)Nc3ccc4c(c3)OCCO4)c2C1=O | 6.32
CCOc1ncccc1C(=O)N1CCCSC1=Nc1ccc(C(C)=O)cc1 | 9.27
CS(C)=O.Cc1[nH]c2ccccc2c1/C=N/Nc1ccc([N+](=O)[O-])cc1S(=O)(=O)Nc1ccc(Cl)cc1 | 14.8
CC(C)c1ccc(CNc2c([N+](=O)[O-])c(=O)oc3ccccc23)cc1 | 14.2
Cc1cc(C(=O)N2CCN(c3cccc(Cl)c3)CC2)c(C)o1 | -12.5
COc1cc(/C=C2\SC(=Nc3ccc(Cl)c(C(=O)O)c3)NC2=O)c(Br)c(Br)c1O | 12.9
NNC(=O)c1ccc(COc2cccc3cccnc23)cc1 | 18
CCc1ccc(NC(=O)C2CCN(S(=O)(=O)c3c(C)noc3/C=C/N(C)C)CC2)cc1 | 3.89
Cc1nn(Cc2ccc(Cl)cc2Cl)c(C)c1NC(=O)C1C2CCC(O2)C1C(=O)O (stereo not shown) | -9.88
Cc1ccc(S(=O)(=O)N2CCN(CCOc3cccc(C)c3)CC2)cc1 | -4.07
CCOC(=O)C(=O)/C(=C\N(C)C)c1onc(-c2ccccc2)c1C(=O)OC | 11.9
CCS(=O)(=O)N1CCC(N2CCN(c3ccccc3)CC2)CC1 | -10.9
Cc1ccc(S(=O)(=O)N2CCN(C(=O)c3ccnn3C)CC2)cc1C | 8.37
O=C(O)c1ccc(N/N=C/c2c[nH]c3ccccc23)cc1 | -18.1
O=C(COC(=O)c1ccccc1)Nc1ccccc1Sc1ccccc1 | 4.88
COc1ccc(-c2csc(NC(=O)c3ccc(N4C(=O)CCC4=O)cc3)n2)cc1 | 43.8
Cc1c(Cl)cccc1NC(=S)NC1CCCC1 | -5.1
COc1cc(NC(=O)c2ccco2)c(C(=O)OCC(=O)c2c[nH]c3ccccc23)cc1OC | 25.9
Cc1cc(-c2nn(-c3ccccc3F)cc2CN(C)CC(O)CO)c(C)s1 (stereo not shown) | -22.3
Cc1ccc(N(Cc2ccccc2F)S(C)(=O)=O)cc1C | -6.87
CCO[C@H]1OC(C(N)=O)=C[C@@H](c2ccccc2)[C@@H]1CCCO | 2.91
Cn1c(CNc2nc3ccccc3n2CCN2CCCCC2)nc2ccccc21 | -65
CC(NCCO)C(=O)C12CC3CC(CC(C3)C1)C2.Cl (stereo not shown) | 13.1
O=C(COc1ccc(Cl)cc1)NCc1ccc(F)cc1 | -6.94
COc1ccc(NC(C)=O)cc1NC(=O)CSc1nnc(-c2ccccn2)n1C | -7.69
Cc1ccccc1NC(=O)Cn1cnc2c(oc3ccccc32)c1=O | 11.6
O=C(CSc1nnc(-c2ccc(O)cc2)n1Cc1ccco1)N1CCc2ccccc2C1 | -44.1
